Experimental data from PubChem BioAssay AID686979 (National Center for Advancing Translational Sciences (NCATS), 2013).
Hit rate of the full screen: of about 420,000 compounds, about 50,000 (12%) were called active. This list was built around the results that the source calls inconclusive (neither active nor inactive); the mix of calls is not that of the screen. Calls follow the shape of the dose curve; as a rule, active = well fitted inhibition curve with a large enough effect; inconclusive = small, poorly fitted or top-dose-only effect; inactive = flat fitted curve, though single readings scatter. No potency is given beside an inconclusive call; the fits are too rough.

experiment: qHTS for Inhibitors of human tyrosyl-DNA phosphodiesterase 1 (TDP1): qHTS in cells in presence of CPT; conditions: chicken DT40 Tdp1-/-;hTDP1 cells + 20 nM CPT, ATP luminescence, 48 h; activity change, negative = growth inhibition: at 46.2 µM (top of the series) unless noted; also: nearly all actives have a fitted effect of over 55% in size
How it was run: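 Cell growth measured by CellTiter-Glo luminescence after a minimum 48 h, 37 C compound exposure with 20 nM CPT in Tdp1-knockout DT40 cells stably expressing hTDP1, seeded 400/well; qHTS titration format.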
% is scaled to controls: 0 for no effect and ±100 for the full control effect; potency is read from the fitted curve at half-maximal effect; tags tell the direction and shape of the fitted curve.

Compound	Potency	activity change, negative = growth inhibition
OC(CNCCc1ccc(Cl)cc1)COc1cc(Cl)ccc1Cl (stereo unspecified)	active: 16.4 µM	–
CCOC(=O)c1cc(-c2ccccc2)n(CCC(=O)Nc2cc(C)cc(C)c2)c1C	active: 14.6 µM	–
N[C@@H](Cc1ccc(O)cc1)C(=O)Nc1ccc2ccccc2c1	inactive	–
CCOc1ccc(NC(=S)N(CCN2CCOCC2)Cc2cc3cc4c(cc3[nH]c2=O)OCCO4)cc1	inconclusive [inhibitor, single point]	–
COc1ccc(NC(=O)CC2C(=O)N(c3ccc(F)cc3)C(=O)N2CCc2sccc2C)cc1 (stereo unspecified)	inconclusive [inhibitor, single point]	–
O=C(Nc1nnc(COc2ccc(F)cc2)s1)c1cccs1	inactive	–
CC(C(=O)Nc1ccc([N+](=O)[O-])cc1)N1CCN(C/C=C/c2ccccc2)CC1 (stereo unspecified)	inconclusive [inhibitor, single point]	–
CCCCCCNC(=O)c1cc(S(=O)(=O)N2CCc3ccccc32)ccc1F	inconclusive [inhibitor, partial curve]	–
CCn1c(CC(=O)Nc2ccc(C)cc2)nnc1SCC(=O)NCCc1ccccc1	inconclusive [inhibitor, single point]	–
COc1cc(NC(=O)c2cc(Cl)ccc2Cl)ccc1-c1cc2ccccc2oc1=O	inconclusive [inhibitor, single point]	–
Cc1ccc2scc(N3CCCCC3)c(=O)c2c1	inactive	–
COc1ccc(OC)c(NC(=O)Nc2nc(C(N)c3ccccc3Cl)cs2)c1 (stereo unspecified)	inconclusive [inhibitor, single point]	–
COc1ccccc1N1Cc2ccc(OC)c(OC)c2C1=O	inconclusive [inhibitor, partial curve, poor fit]	–
Cc1cc(C(=O)CN2C(=O)NC(C)(c3ccc(F)c(F)c3)C2=O)c(C)n1C1CC1 (stereo unspecified)	active: 7.31 µM	–
CC(=O)c1cc(F)c(N2CCOCC2)cc1C	inactive	–
C[C@]12c3[nH]c4cc(-c5ccco5)ccc4c3CCN1C(=O)[C@@H](CC(=O)NCc1ccco1)C[C@@H]2C(=O)N1CCCCC1	inconclusive [inhibitor, single point]	–
CCC(=O)NC(c1ccc(N(C)C)cc1)c1c(O)ccc2ccccc12 (stereo unspecified)	inactive	–
Nc1ccc2nc(-c3ccc(O)cc3)sc2c1	active: 20.6 µM	–
O=C(Cn1c(=O)oc2cc(S(=O)(=O)NCc3ccccc3)ccc21)NCc1ccccc1Cl	active: 7.31 µM	–
CCNC(=O)CSc1nc2cc([N+](=O)[O-])ccc2n1-c1cccc(C(F)(F)F)c1	inconclusive [inhibitor, single point]	–
Cc1ccc(-c2nc3sc(C(N)=O)c(N)c3c3c2CCCC3)cc1	inconclusive [inhibitor, single point]	–
COc1ccc(S(=O)(=O)NCC2CCCN(C(=O)c3occc3C)C2)cc1 (stereo unspecified)	inactive	–
Cc1ccc(N2CCN(C(=O)C3CCN(c4ncnc5c4nc4n5CCCCC4)CC3)CC2)c(C)c1	active: 20.6 µM	–

Compound	Potency	activity change, negative = growth inhibition
Cc1nc(Sc2ccc(Br)cc2)c(C#N)c(C)c1[N+](=O)[O-]	active: 20.6 µM	–
CN(c1ccc(OCC(=O)OCC(=O)Nc2ccccc2)cc1)S(=O)(=O)c1ccc(F)cc1	inactive	–
COc1ccc(NC(=O)CC2SC(=Nc3ccccc3)NC2=O)cc1 (stereo unspecified)	inconclusive [inhibitor, single point]	–
CCn1c2ccccc2c2cc(NC(=O)CSc3nnc(-c4cccc(OC)c4)n3N)ccc21	inconclusive [inhibitor, single point]	–
CN(Cc1ccccc1)C(=O)C1CCC(CNS(=O)(=O)c2ccc3c(c2)CCCC(=O)N3)CC1 (stereo unspecified)	inconclusive [inhibitor, single point]	–
CC(=O)c1cccc(N2C(=O)C3C(C(=O)Nc4cc(C)on4)C4(C)C=CC3(O4)C2C(=O)NC(C)(C)C)c1 (stereo unspecified)	–	inconclusive: -33.7% [inhibitor]
CS(=O)(=O)c1ccc2nc(NC(=O)c3ccccc3Br)sc2c1	inactive	–
CCCCNC(=O)C(NC(=O)c1ccc2ccccc2c1)C(=O)c1ccccc1 (stereo unspecified)	inconclusive [inhibitor, single point]	–
Cc1ccc2[nH]c3c(NCCN4CCOCC4)ncnc3c2c1	inconclusive [inhibitor, single point]	–
CCc1c(C)nc2ncnn2c1N1CCCC(C(=O)Nc2ccc(NC(C)=O)cc2)C1 (stereo unspecified)	inactive	–
CCOCCCn1c(SC(C(=O)Nc2cc(C)ccc2C)c2ccccc2)nnc1-c1ccc(Cl)cc1 (stereo unspecified)	inactive	–
C[C@@H]1CN([C@H](C)CO)C(=O)CCCn2nncc2CO[C@H]1CN(C)Cc1cccc2c1OCCCO2	inactive	–
COc1cccc(Cn2c3ccc(NC(=O)Cc4ccccc4C)cc3c(=O)n2C)c1	inconclusive [inhibitor, single point]	–
Cc1ccc2ncc(C(=O)NC(C)c3ccccc3)c(=O)n2c1 (stereo unspecified)	inconclusive [inhibitor, partial curve]	–
CC(C)N(CCn1c(SCC(=O)N2CC(=O)Nc3ccccc32)nc2ccccc2c1=O)C(C)C	inconclusive [inhibitor, single point]	–
O=[N+]([O-])c1ccc(Nc2nc(NCCN3CCOCC3)nc(Nc3ccc(I)cc3)n2)cc1	active: 7.08 µM	–
Cc1ccc(Cn2nnc3c(=O)n(Cc4cccc(C)c4)cnc32)cc1	inactive	–
CCCCN(CC)Cc1ccc(CNC(=S)Nc2ccc(C)cc2Cl)o1	active: 16.4 µM	–
C=CC(=O)Nc1ccc(Nc2ccnc(Nc3ccc(N4CCN(C)CC4)cc3)n2)cc1	active: 9.2 µM	–
O=C(NCCc1ccccc1)c1ccc2c(c1)S(=O)(=O)N=C1CCCCCN12	inactive	–
COCCNCCCOc1ccc(Br)cc1Cl	inconclusive [inhibitor, full curve, poor fit]	–
CC1(C(=O)NS(=O)(=O)C2CC2)CCCN(C(=O)c2ccc3c(c2)OCO3)C1 (stereo unspecified)	active: 7.31 µM	–
Clc1ccccc1NN(Cc1ccccn1)c1ccccc1Cl	inconclusive [inhibitor, single point]	–
